Among the data in PMC8287954 are stoichiometry N values, retold here.

For this test, the target named is Hs^1-279-Sp^144-152 chimera•Gemin2 (human | Schizosaccharomyces pombe | not stated) (UniProt Q16637). Put plainly: SEC-MALS; Superdex 200 10/300 GL, 0.5 ml/min, room temperature (20°C), 50 mM HEPES-NaOH pH 7.5, 250 mM NaCl, 5 mM DTT; self-association of the SMN•G2 unit, (SMN•G2)n. Background: In gel filtration, larger molecules generally elute earlier.

By stoichiometry N is commonly meant the number of molecules, sites or subunits per partner or assembly.

Entries with a single value are a further part of the results.

On to “Hs^1-279-Sp^144-152 chimera•Gemin2 (from UniProt Q16637 1-279; Q09808 144-152; O14893 1-280) (complex)”, for which the stoichiometry N is, setting by setting: (minor dimer species) 2; (predominant tetramer-octamer species) 8.
